Laboratory results as given in PubChem BioAssay AID1159614 (National Center for Advancing Translational Sciences (NCATS), 2016).
Among all 45,000 compounds or so, about 65 (0.1%) were called active. Calls come from the whole dose curve; as a rule, active = well fitted activation curve with a large enough effect; inconclusive = small, poorly fitted or top-dose-only effect; inactive = no such curve, though single readings can be large or run the other way. This is one part of the list.

Target: Galactocerebrosidase (Homo sapiens) (UniProt P54803)
Assay: A Novel Cell-Based Assay to Identify Small Molecules for B -Galactocerebrosidase; note: 0% is about no effect; nearly all actives have a fitted effect of over 65% in size
Conditions: 145M-Twi-hGALC-G270D cells (Twitcher mouse brain line with human GALC G270D), HMU-beta-Gal fluorescence, 48 h; series mostly up to 57.5 µM; activation: at the top concentration
Procedure, shortened: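 Mutant human GALC (G270D), stably expressed in a Twitcher mouse brain cell line lacking endogenous GALC, is measured in live-treated cells via 6-hexadecanoylamino-4-methylumbelliferyl-β-galactoside hydrolysis (0.1 mM final, pH 5.2) with fluorescent detection.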

UniProt P54803, sequence (P54803 whole entry, looked up): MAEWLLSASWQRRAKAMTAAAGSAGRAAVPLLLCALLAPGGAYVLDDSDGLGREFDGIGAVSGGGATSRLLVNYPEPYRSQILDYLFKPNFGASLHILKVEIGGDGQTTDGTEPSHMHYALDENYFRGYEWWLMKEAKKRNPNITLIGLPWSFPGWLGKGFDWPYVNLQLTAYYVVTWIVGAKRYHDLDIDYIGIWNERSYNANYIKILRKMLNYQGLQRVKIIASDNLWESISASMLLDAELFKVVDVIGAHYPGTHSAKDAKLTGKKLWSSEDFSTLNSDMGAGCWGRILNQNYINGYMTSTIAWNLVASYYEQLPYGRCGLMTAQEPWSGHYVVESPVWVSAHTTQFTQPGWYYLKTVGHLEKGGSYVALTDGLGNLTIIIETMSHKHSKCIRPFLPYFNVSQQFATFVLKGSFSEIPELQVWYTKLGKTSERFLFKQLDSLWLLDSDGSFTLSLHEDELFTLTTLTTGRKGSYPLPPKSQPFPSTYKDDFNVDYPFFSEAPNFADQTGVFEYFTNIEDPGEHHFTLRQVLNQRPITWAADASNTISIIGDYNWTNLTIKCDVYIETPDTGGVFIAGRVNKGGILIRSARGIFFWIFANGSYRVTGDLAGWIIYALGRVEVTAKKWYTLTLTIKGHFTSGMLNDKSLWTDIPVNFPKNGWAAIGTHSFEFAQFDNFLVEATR

Row | SMILES | activation | Potency
1 | COc1ccc(-c2nc(CNS(=O)(=O)c3ccccc3)cs2)cc1 | inactive: -5.46% | –
2 | Cc1ccc2nc(N3CCN(C(=O)C4CC4)CC3)sc2c1 | inactive: -14.3% | –
3 | CC1CCCN(CCCNC(=O)c2cn(C)c3ccc(S(=O)(=O)N(C)C4CCCCC4)cc3c2=O)C1 (configuration not stated) | inactive: -17.9% | –
4 | Cc1ccc(NS(=O)(=O)c2ccc3nc(-c4ccccc4)[nH]c3c2)c(Cl)c1 | inactive: -14.6% | –
5 | Cc1ccc2c(c1)-c1nc(-c3ccc4c(c3)NC(=O)CO4)cc(-c3ccc(Cl)cc3)c1CO2 | inactive: -10.8% | –
6 | Cn1c(=O)c2c([nH]c(=O)n2Cc2ccc(Cl)cc2Cl)n(C)c1=O | inactive: -12.1% | –
7 | Cc1ccc(NC(=O)Cn2cc3c(n2)CCCCC3)cc1 | inactive: -6.03% | –
8 | CCOC(=O)c1ccccc1NC(=O)c1cc2c(=O)oc3ccc(C)cc3c2s1 | inactive: -39.5% | –
9 | CC1=C(C(=O)N2CCN(c3cccc(C(F)(F)F)c3)CC2)C2(CCCCC2)OC1=O | inactive: -18.7% | –
10 | CCN(c1ccccc1)c1ncnc2c1cnn2-c1ccc(C)cc1C | inactive: -7.39% | –
11 | COc1ccccc1CNC(=O)CN1C(=O)CSc2ccc(S(=O)(=O)N3CCCCC3)cc21 | inactive: -10.9% | –
12 | COC(=O)c1c(Oc2ccc(C(C)=O)cc2)nnc(-c2ccccc2)c1-c1ccccc1 | inactive: -35.4% | –
13 | Cc1cccc(N2CCN(C(=O)c3c(C)oc4ncnc(N5CCCCC5)c34)CC2)c1C | inactive: -15.6% | –
14 | Cc1ccc(C)c(Nc2nc3c(S(=O)(=O)c4ccc(C(C)C)cc4)nnn3c3ccsc23)c1 | inactive: -4.15% | –
15 | CCc1ccc(C2CC(=O)Nc3cc4c(cc32)OCO4)cc1 (configuration not stated) | inactive: -44.5% | –
16 | CCOC(=O)c1noc2nc(C)n(CC(=O)Nc3ccccc3F)c(=O)c12 | inactive: -32.9% | –
17 | Cc1ccc(S(=O)(=O)Nc2cccc(-c3cn4cccc(C)c4n3)c2)cc1 | inactive: -22.4% | –
18 | O=C(Nc1ccc(Cl)cc1Cl)c1cc(S(=O)(=O)N2CCc3ccccc32)ccc1F | inactive: -3.01% | –
19 | COc1ccc(OC)c2sc(N3CCN(C(=O)C4CC4)CC3)nc12 | inactive: 6.73% | –
20 | CN1CCN(C2=Nc3ccccc3Oc3ccc(Cl)cc32)CC1 | inactive: -8% | –
21 | CC(C)CN(CCCNC(=O)CN1C(=O)CSc2ccc(S(=O)(=O)N3CCOCC3)cc21)CC(C)C | inactive: -14.1% | –
22 | Cc1ccccc1CCNC(=O)c1ccc2c(c1)c(C)c(C)n2Cc1ccccc1 | inactive: -29.3% | –
23 | CCOc1ccc(CNC(=O)CSc2nnc(C)c3c(C)n(-c4ccccc4)nc23)cc1 | inactive: -17.6% | –
24 | CCc1ccccc1N1C(=O)N(Cc2ccccc2C)c2ccccc2S1(=O)=O | inactive: -8.77% | –
25 | COc1ccc(S(=O)(=O)n2ccnc2)cc1C(C)(C)C | inactive: 1.08% | –

Row | SMILES | activation | Potency
26 | COc1ccccc1NC(=O)c1cnc(SCC(=O)N2CCCc3ccccc32)n(C)c1=O | inactive: -20.2% | –
27 | COc1ccc(OC)c(-n2cnc3cc(C(=O)NC4CCCCCC4)ccc32)c1 | inactive: -7.75% | –
28 | CCOc1ccc(NC(=O)CC2C(=O)OCCN2CC)cc1 (configuration not stated) | inactive: -3.94% | –
29 | COc1ccc(-c2nc(Cn3c(SCc4cccc(Cl)c4)nc4ccncc43)c(C)o2)cc1 | inactive: -10% | –
30 | CC1=C(c2ccc(F)cc2)S(=O)(=O)N=C1N1CCC(C(=O)NCCc2ccco2)CC1 | inactive: -2.99% | –
31 | Cn1cnc(S(=O)(=O)N2CCC(C(=O)NCc3ccccc3)CC2)c1 | inactive: -9.55% | –
32 | Cc1ccc(Sc2c(C)nn(C(=O)COc3ccccc3)c2C)cc1 | inactive: -23.3% | –
33 | Cc1cccc(Cn2c(C)c(C)c3cc(C(=O)NCc4ccco4)ccc32)c1 | inactive: -10.5% | –
34 | Cn1c2ccccc2c2cnn(CC(=O)NCc3ccc(Cl)cc3)c(=O)c21 | inactive: -14.6% | –
35 | CC(=O)Nc1ccccc1OCc1cc(=O)n2c3c(sc2n1)CCCC3 | inactive: -8.77% | –
36 | COc1ccc2[nH]c(=O)c(CN(C(=O)c3cccc(Cl)c3)c3ccccc3OC)cc2c1 | inactive: 2.99% | –
37 | COc1ccc(S(=O)(=O)NCCc2csc3nc(-c4ccc(Cl)cc4)nn23)cc1C | inactive: -26.1% | –
38 | CS(=O)(=O)N1CCc2cc(S(=O)(=O)NCc3ccccc3Cl)ccc21 | inactive: -13.6% | –
39 | Cc1ccc(Cn2nc(C)c(NC(=O)c3cc(-c4ccc(F)cc4)on3)c2C)cc1 | inactive: -12.8% | –
40 | Cc1nn(C(=O)c2ccccc2)c(C)c1Sc1ccc(Cl)cc1 | inactive: -1.38% | –
41 | CCOc1ccc(NC(=O)Cn2c(=O)oc3cc(S(=O)(=O)NC4CCCC4)ccc32)cc1 | inactive: -41.4% | –
42 | Cc1ccc(NC(=O)Cn2c(C)cc(C)c(C#N)c2=O)cc1 | inactive: 0.377% | –
43 | COc1cc(NC(=O)Cn2ccn(Cc3ccccc3OC)c(=O)c2=O)cc(OC)c1 | inactive: -8.44% | –
44 | CCOC(=O)c1c(S(=O)(=O)N2CCCC(C(=O)N(C)Cc3ccccc3)C2)c(C)n(C)c1C (configuration not stated) | inactive: -20.4% | –
45 | Cc1cccc(-n2c(-c3ccco3)nc3c(cnn3-c3ccccc3C)c2=O)c1 | inactive: 27.6% | –
46 | COc1ccccc1NC(=O)CSc1nc2ccccc2c(=O)n1CCC(=O)NC1CCCCC1 | inactive: -12.2% | –
47 | Cc1ccc(C(c2sc3nc(-c4ccco4)nn3c2O)N2CCOCC2)cc1 (configuration not stated) | inactive: -9.17% | –
48 | O=C(CN1CCN(Cc2ccc(F)cc2Cl)S1(=O)=O)Nc1ccc(F)cc1 | inactive: -3.32% | –
49 | CCCCOCCOCCOCc1cc2c(cc1CCC)OCO2 | – | inactive
50 | Cc1ccccc1NC(=O)C1CCC(CNS(=O)(=O)c2ccc3c(c2)C(C)(C)C(=O)N3C)CC1 (configuration not stated) | inactive: -10.2% | –

Row | SMILES | activation | Potency
51 | CCN(CC)CCOC(=O)C1(C2CCCCC2)CCCCC1 | inactive: -18.4% | –
52 | Cc1ccc(-n2ncc3c(N(C)Cc4ccccc4)ncnc32)cc1 | inactive: -9.29% | –
53 | Cc1cc(NS(=O)(=O)c2ccc(NC(=O)c3ccccc3F)cc2)nc(C)n1 | inactive: 0.417% | –
54 | CCOc1ccc(CCNC(=O)c2cn(C)c3ccc(S(=O)(=O)N4CCOCC4)cc3c2=O)cc1OCC | inactive: -3.85% | –
55 | Oc1ccccc1 | inactive: -11.5% | –
56 | Cc1cccc(OCC(=O)NCC2(N3CCN(C)CC3)CCCCC2)c1C | inactive: 0.294% | –
57 | Cc1ccc(NC(=O)c2ccc3snnc3c2)cc1Cl | inactive: -13.5% | –
58 | CCc1ccc(S(=O)(=O)c2nnn(-c3ccc(F)cc3)c2N)cc1 | inactive: -20.2% | –
59 | CCCNC(=O)C(=O)NCC(c1ccc2c(c1)OCO2)N1CCOCC1 (configuration not stated) | inactive: 3.44% | –
60 | COc1ccc(OCc2ccc(-c3nc(C#N)c(N4CCC(C)CC4)o3)o2)cc1 | inactive: -38.5% | –
61 | COc1ccccc1N1CCN(S(=O)(=O)c2ccc3[nH]c4c(c3c2)CCCC4)CC1 | inactive: -13.3% | –
62 | CCC(=O)N1CCc2cc(Br)cc(S(=O)(=O)CCC(=O)N3CCN(c4ccccc4OC)CC3)c21 | inactive: -16.7% | –
63 | COc1ccc(-c2ccnc3[nH]n(-c4ccccc4)c(=O)c23)cc1 | inactive: -16.5% | –
64 | CCc1ccc(NC(=O)C2CCCN(S(=O)(=O)c3ccc4c(c3)CCCN4C(C)=O)C2)cc1 (configuration not stated) | inactive: -18.8% | –
65 | Cc1ccc(-n2ncc(C(=O)N3CCCCC3)c2C2CCN(C(=O)OC(C)(C)C)CC2)cc1C | inactive: -5.34% | –
66 | COc1ccc(C(=O)N2CC(=O)Nc3ccc(C)cc3C2c2ccccc2)c(OC)c1 (configuration not stated) | inactive: -6.85% | –
67 | COc1ccc(/C=C\c2onc(C)c2S(=O)(=O)N2CCC(C(=O)Nc3ccc(Cl)cc3)CC2)cc1 | inactive: -13.2% | –
68 | CCOc1cc(-c2nnc(SCC(=O)NCc3ccccc3)nc2-c2ccc(OC)c(OCC)c2)ccc1OC | inactive: -4.24% | –
69 | Cc1cc(C)n(-c2nc3ccccc3nc2Nc2ccc(C(C)C)cc2)n1 | inactive: -11% | –
70 | CCOCCCNC(=O)c1ccc2c(c1)NC(=O)C(CS(=O)(=O)Cc1ccc(F)cc1Cl)N2 (configuration not stated) | inactive: 5.32% | –
71 | Cc1cc2[nH]c(=O)c(=O)[nH]c2cc1S(=O)(=O)NCc1ccc(F)cc1 | inactive: -5.81% | –
72 | O=C(NC1CCCCCC1)C1CCN(C(=O)N2CCOc3ccc(Cl)cc32)CC1 | inactive: -17.5% | –
73 | Cc1ccc(C2=NN(CC(=O)NCCCN(CC(C)C)CC(C)C)C(=O)CC2)cc1 | inactive: 1.02% | –
74 | CCCCc1nn2c(=O)cc(COC(=O)c3cccc(NC(=O)COc4ccccc4)c3)nc2s1 | inactive: -30.2% | –
75 | CCOc1cccc(NC(=O)C2CC(=O)N(C)C(=Nc3cccc(OC)c3)S2)c1 (configuration not stated) | inactive: 16% | –

Row | SMILES | activation | Potency
76 | CCN(CCCNC(=O)CSc1cc(=O)n(C)c2ccccc12)c1ccccc1 | inactive: -24.9% | –
77 | O=C(Nc1ccc(Cl)cc1Cl)c1cc(S(=O)(=O)N2CCC3(CC2)OCCO3)ccc1F | inactive: -15.2% | –
78 | Cc1cc(C)c(NC(=O)C(C)n2c(=O)cc(C)c3c(C)nn(-c4ccccc4)c32)c(C)c1 (configuration not stated) | inactive: -19% | –
79 | COCCNC(=O)CCn1c(=O)c2cc(OC)c(OC)cc2n(CC(=O)Nc2ccc(F)c(Cl)c2)c1=O | inactive: -20.3% | –
80 | CC(=O)N1CCc2c(sc3c2c(=O)n(-c2ccccc2)c(=O)n3CC(=O)c2ccc(Cl)cc2)C1 | inactive: -21.9% | –
81 | O=C(NCc1cccc(F)c1)C1CCN(c2nc3ccccc3nc2C(F)(F)F)CC1 | inactive: -20.6% | –
82 | CCc1ccccc1Nc1nn2c(=O)c3ccc(C(=O)NCc4ccc(C)cc4)cc3nc2s1 | inactive: -4.59% | –
83 | Cc1cc(C)c(NC(=O)Cn2c(=O)n(-c3cccc(C(F)(F)F)c3)c(=O)c3c(C)c(C)sc32)c(C)c1 | inactive: -23.9% | –
84 | CC(=O)N1CCOc2cc(S(=O)(=O)NCc3ccccc3Cl)c(C)cc21 | inactive: 6.05% | –
85 | O=C(O)c1ccc(Nc2nc3ccccc3c3nncn23)cc1 | inactive: -5.04% | –
86 | COc1ccccc1NC(=O)C(Cc1ccccc1)NS(=O)(=O)c1ccc2c(c1)CCN2C(C)=O (configuration not stated) | inactive: -0.377% | –
87 | CCN(C(=O)c1ccc2c(c1)N(Cc1cccc(Cl)c1)C(=O)c1ccccc1S2=O)c1ccccc1 (configuration not stated) | inactive: -1.23% | –
88 | CCC(=O)N1c2ccccc2CC1C(=O)NCCCN1CCN(c2cc(C)ccc2C)CC1 (configuration not stated) | inactive: -7.3% | –
89 | COc1ccc(-c2cc3nc(N)cc(=O)n3[nH]2)cc1 | inactive: 2.73% | –
90 | CC(C)(C)C(=O)Nc1cc(-c2cccc(Br)c2)nn1-c1ccccc1 | inactive: -16% | –
91 | COCCCNC(=O)c1ccc(Cn2c(=O)c3ccccc3n(CC(N)=O)c2=O)cc1 | inactive: -4.6% | –
92 | CC(=O)Oc1ccccc1C(=O)Nc1ncc([N+](=O)[O-])s1 | inactive: -9.03% | –
93 | CCOC(=O)c1ccc(NC(=O)CSc2nc3ncc(Br)c(C)c3[nH]2)cc1 | inactive: -19.1% | –
94 | Cn1nc(-c2ccc(OCC(=O)Nc3cccc(C(F)(F)F)c3)cc2)c2ccccc2c1=O | inactive: 2.08% | –
95 | Cc1cccc(C)c1OCc1cc(=O)n2c(-c3ccccc3)csc2n1 | inactive: -39.3% | –
96 | Cc1ccc(C(=O)Nc2ccc(F)cc2)cc1S(=O)(=O)N1CCCCCC1 | inactive: -24.2% | –
97 | COc1ccc(NC(=O)c2cc(S(=O)(=O)N3CCOCC3)cn2C)cc1Cl | inactive: -2.4% | –
